Hit rate of the full screen: of about 310,000 compounds, about 14,000 (4.5%) showed an effect of 50% or more. Effects have a minus sign here. This is one part of the list.
The compounds below were run against human ether-à-go-go-related gene (hERG) potassium channel (human, UniProt Q12809) (assay: primary screen, population patch clamp on CHO cells stably expressing hERG).
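Further: peak tail current of the secondary pulse compared with the same well before compound.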

human ether-à-go-go-related gene (hERG) potassium channel, sequence (Q12809 whole entry, looked up): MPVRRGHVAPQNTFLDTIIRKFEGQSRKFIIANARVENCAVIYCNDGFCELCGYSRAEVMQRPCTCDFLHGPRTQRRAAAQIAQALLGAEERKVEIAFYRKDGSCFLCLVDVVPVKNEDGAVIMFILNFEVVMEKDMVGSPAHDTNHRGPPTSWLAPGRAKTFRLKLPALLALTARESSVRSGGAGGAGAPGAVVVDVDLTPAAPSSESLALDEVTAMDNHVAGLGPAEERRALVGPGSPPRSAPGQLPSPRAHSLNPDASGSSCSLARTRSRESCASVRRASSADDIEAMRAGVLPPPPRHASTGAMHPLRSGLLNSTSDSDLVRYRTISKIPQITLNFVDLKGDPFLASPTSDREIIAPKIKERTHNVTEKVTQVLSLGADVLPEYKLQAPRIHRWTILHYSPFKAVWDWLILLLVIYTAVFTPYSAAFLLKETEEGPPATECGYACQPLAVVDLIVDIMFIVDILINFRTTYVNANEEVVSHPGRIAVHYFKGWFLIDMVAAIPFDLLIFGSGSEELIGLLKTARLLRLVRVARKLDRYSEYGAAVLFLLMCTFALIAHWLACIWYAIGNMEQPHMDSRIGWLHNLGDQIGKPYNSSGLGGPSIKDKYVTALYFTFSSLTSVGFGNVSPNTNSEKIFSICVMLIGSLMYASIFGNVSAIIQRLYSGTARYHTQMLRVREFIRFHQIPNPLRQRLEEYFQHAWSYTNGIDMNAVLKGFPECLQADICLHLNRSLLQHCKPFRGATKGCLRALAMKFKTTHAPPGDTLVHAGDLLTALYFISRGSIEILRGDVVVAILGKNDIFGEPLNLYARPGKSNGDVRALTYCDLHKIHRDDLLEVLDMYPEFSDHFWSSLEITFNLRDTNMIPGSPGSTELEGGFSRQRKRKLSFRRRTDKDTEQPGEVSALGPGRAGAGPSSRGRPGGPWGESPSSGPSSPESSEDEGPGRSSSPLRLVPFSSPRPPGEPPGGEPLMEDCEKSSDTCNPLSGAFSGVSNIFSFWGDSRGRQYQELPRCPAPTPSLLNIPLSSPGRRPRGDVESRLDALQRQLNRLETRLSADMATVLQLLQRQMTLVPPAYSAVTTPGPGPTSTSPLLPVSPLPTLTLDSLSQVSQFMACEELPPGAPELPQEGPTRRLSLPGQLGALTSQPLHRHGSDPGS

Compound	hERG current change (%, negative = inhibition) at 10uM [%]
Cc1ccc(S(=O)(=O)N2CCCCC2CCNC(=O)C(=O)NC2CC2)cc1 (stereo not drawn)	-25.7
Cc1oc2cc(O)ccc2c(=O)c1-c1cnn(-c2ccccc2)c1	17.2
O=C(NCc1ccccc1)C(=O)Nc1nc(-c2ccccc2)cs1	9.13
Cc1cc(C(=O)N/N=C/c2ccc(Cl)c([N+](=O)[O-])c2)c(C)n1-c1ccc(F)cc1	-2.41
S=C(c1ccc(-c2ccc(Cl)cc2Cl)o1)N1CCCCC1	9.81
O=C(N/N=C/c1ccc2cccc(OCc3ccccc3)c2n1)c1ccc(Cl)cc1	12.1
COc1ccc(NC(=O)c2cccc(N3C(=O)C4C5C=CC(C6CC56)C4C3=O)c2)c(OC)c1 (stereo not drawn)	0.727
O=C1N=C(N2CCN(c3ccccc3)CC2)SC1Cc1ccccc1 (stereo not drawn)	-66.4
COc1ccc2nc(NC(=O)CSCc3c(C)noc3C)sc2c1	1.24
Cc1ccc(-n2c(N)c(C(=O)Nc3c(C)n(C)n(-c4ccccc4)c3=O)c3nc4ccccc4nc32)cc1	-8.97
Cc1ccc(NC(=O)COc2ccccc2C(=O)NCCN(C)C)cc1	20.4
CC1(C)CC(NC(=O)C23CCC(C)(C2Br)C3(C)C)CC(C)(C)N1 (stereo not drawn)	-26.9
S=C(Nc1ccc(Cl)c(Cl)c1)N1CCOCC1	-8.76
COc1ccc(OCCCC(=O)Nc2ccc3c(c2)OCCO3)cc1	4.98
O=C(c1cccc2ccccc12)C1CCCN(C(=O)c2ccc(N3CCOCC3)cc2)C1 (stereo not drawn)	-16.3
CCOC(=O)CNC(=O)C(NC(=O)C1CCC(C)CC1)C(C)CC (stereo not drawn)	10.6
O=C1CC(c2ccccc2)=Nc2ccccc2N1	-4.68
O=C(Nc1ccccc1Cl)c1cccc(NC(=O)C2CCCC2)c1	-6
Cc1cccc(-c2n[nH]c(=S)n2/N=C/c2cccs2)c1	-14.6
COc1ccc(CN2C(=O)c3cccnc3C2Nc2cc(Cl)c(OC)cc2OC)cc1 (stereo not drawn)	5.43
CN(NC1OC(=O)c2ccccc21)c1c([N+](=O)[O-])cc(C(F)(F)F)cc1[N+](=O)[O-] (stereo not drawn)	9.72
COC(=O)c1cc(O)c(OCc2ccccc2)c(O)c1	11.7

Compound	hERG current change (%, negative = inhibition) at 10uM [%]
COc1ccc(OC)c(S(=O)(=O)NCCc2cn3ccsc3n2)c1	5.15
CCN1CCN(C(=S)c2ccc(-c3ccccc3)cc2)CC1	-15.4
CCOc1ccc(NC(=O)c2ccc3c(c2)N(Cc2ccc(F)cc2)C(=O)CS3=O)cc1 (stereo not drawn)	-0.556
CCC(=O)c1cc2c(C)cc(=O)oc2c(C)c1OC	-4.4
COc1cc(OC)cc(C(=O)OCC(=O)Nc2cccc(C(C)=O)c2)c1	6.57
C/C(=N\O)C1(C)N(O)C(C)(C)C(c2ccco2)=[N+]1[O-] (stereo not drawn)	22.2
COCCn1nnnc1C(c1ccccc1OC)N1CCN(c2ccccc2F)CC1.Cl (stereo not drawn)	-8.5
Cc1c(NC(=O)Nc2ccccc2C(F)(F)F)c(=O)n(-c2ccccc2)n1C	17.5
Cc1cc(C)c(C)c(S(=O)(=O)N2CCN(C(=O)c3ccc4c(=O)n5c(nc4c3)CCC5)CC2)c1C	-18.1
COc1cccc(C(=O)N2CCN(C3CCC(c4ccccc4)CC3)CC2)c1OC.O=C(O)C(=O)O (stereo not drawn)	-10.1
COc1ccc(NC(=O)CNC(c2ccccc2)c2ccccc2)cc1Cl	18.4
COc1ccc(Nc2nc3ccc(C)cc3cc2C#N)c(OC)c1	3.83
O=C(COc1nncc2ccccc12)Nc1ccc(Br)cc1F	12.3
Cc1ccc(C)n1-c1ccc(C(=O)NCc2cccnc2)cc1	-3.13
Cc1ccc(C)c(OCCC(=O)N2CCN(S(=O)(=O)c3cc(C)ccc3C)CC2)c1	-0.16
CC1=NN(c2ccccc2)C(=O)C1N=Nc1cccc(O)c1 (stereo not drawn)	14.9
Cc1ccsc1/C=N/NC(=O)c1nnn(-c2nonc2N)c1-c1ccc2c(c1)OCO2	3.49
CC1CC(C)CN(CCOc2ccccc2-c2ccccc2)C1.O=C(O)C(=O)O (stereo not drawn)	-68.5
CCC(C(=O)N1CCOCC1)n1c(C(=O)OC)cc2occc21 (stereo not drawn)	7.13
Cc1cc(C)n(-c2nc(NCCCN(C)C)c3c4c(sc3n2)COC(C)(C)C4)n1	-14.1
CC1Oc2ccccc2N(CC(=O)NCc2ccc3c(c2)OCO3)C1=O (stereo not drawn)	13.5
CCOC(=O)CC(=O)CSc1nc(-c2cccnc2)cc(C)c1C#N	-15.1

Compound	hERG current change (%, negative = inhibition) at 10uM [%]
COC(=O)c1cc(OC)c(OC)cc1NC(=S)N1CCCC1	7.34
CCOC(=O)c1c(-c2ccc(Cl)cc2)cn2ccccc12	9.97
COc1ccccc1CC(=O)Nc1ccon1	7.85
O=C(CCC(=O)N1CCN(Cc2ccc(F)cc2)CC1)Nc1nnc(C(F)(F)F)s1	-26.2
COc1ccc(OCCC(=O)OCC(=O)NCc2ccccc2)cc1	6.93
O=C(CSc1nc2[nH]ncc2c(=O)[nH]1)Nc1ccc(OC(F)(F)F)cc1	15.3
Cc1ccc(-c2cc(C(=O)N/N=C/c3cccnc3)n[nH]2)o1	15.2
C/C(=N\NC(=O)CC#N)c1cc2ccc(O)cc2oc1=O	5.05
COc1ccc(-c2noc(CN(Cc3nccn3C)C(C)C)n2)cc1	-6.99
COc1cc([N+](=O)[O-])cc(/C=N\NC(=O)C2COc3ccccc3O2)c1O (stereo not drawn)	-1.68
Cc1ccc(-c2ccc(=O)n(CC(=O)N3CCN(c4cccc(C)c4)C(C)C3)n2)cc1 (stereo not drawn)	-32
Cc1cc(C(=O)NCc2ccco2)c2ccccc2n1	4.66
Cc1cc(C(=O)N/N=C/c2ccc(N(C)C)o2)cs1	-0.379
CC(=O)Nc1ccc(NC(=O)C(C)OC(=O)CNC(=O)c2sc3ccccc3c2Cl)cc1 (stereo not drawn)	18.6
COc1ccc(C(=O)Nc2nnc(C3=COCCO3)o2)cc1	17.6
N#CSCC(=O)c1cccc2ccccc12	-24.8
Cc1nn(C)c(C)c1CCC(=O)NC1CC(C)(C)Cc2c1cnn2-c1ccccc1 (stereo not drawn)	-28.1
Cc1ccc(-c2csc3nc(C)n(-n4c(C)ccc4C)c(=O)c23)o1	-3.01
CCOc1ccc(C(=O)NNC(=O)c2cc(C)oc2C)cc1	8.48
COc1cc(C(=O)N/N=C(\C)c2ccc(NC(=O)Cc3ccccc3)cc2)ccc1O	13.6
COC(=O)c1cc(Cl)c(NC(=O)C(C)C)cc1OC	9.39
CCCC(=O)N1CCN(c2ccc(NC(=O)c3cc4ccccc4o3)cc2Cl)CC1	-56.8

Compound	hERG current change (%, negative = inhibition) at 10uM [%]
COc1ccc(-n2nnnc2SC(C)C(=O)NC2CCCC2)cc1 (stereo not drawn)	3.17
Cc1ccc(NC(=O)CCN2C(=O)OC(C)(C)C2(C)O)cc1 (stereo not drawn)	42.1
Cc1ccc(CNC(=O)CSc2nc(=O)n3cccc(C)c3n2)cc1	-17
CC(C)C(NC(=O)c1c(F)cccc1F)C(=O)OCN1C(=O)c2ccccc2C1=O (stereo not drawn)	13.1
COc1ccc(-n2c(=S)[nH]c3cc(C(=O)NCc4ccco4)ccc3c2=O)cc1OC	6.37
COC(=O)c1cccc(N2C(=O)C(Cl)=C(N3CCOCC3)C2=O)c1	-3.28
COc1cc2nc(C3CC3)n(NC(=O)c3ccc(F)cc3)c(=O)c2cc1OC	2.87
CCN1CCN(CCCN(Cc2ccco2)C(=S)Nc2ccc(Cl)c(C)c2)CC1	-74.8
Cc1cccnc1NC(=O)c1ccc([N+](=O)[O-])o1	-3.22
Cc1nnc(SC(C(=O)Nc2cc(Cl)cc(Cl)c2)c2ccccc2)[nH]c1=O (stereo not drawn)	18.9
CSc1ccc(/C=C(/NC(=O)c2ccccc2)C(=O)N2CCN(C)CC2)cc1	-75.9
CC1(C)C(=O)Nc2ccccc2N1C(=O)Cn1ncc(Cl)c(Cl)c1=O	9.47
ONC(=Nc1ccc(Cl)cc1)c1ccc(Cl)cc1	-3.93
CN1C(=O)C2(c3ccccc31)N(C)CC(c1ccccc1)C21SC(=S)N(Cc2ccco2)C1=O (stereo not drawn)	5.47
O=C(NNC(=S)Nc1ccccc1Cl)c1ccccc1Br	23.6
CCN(C(=O)Cn1nc(C)c([N+](=O)[O-])c1C)C1CCS(=O)(=O)C1 (stereo not drawn)	24.1
CCOC(=O)CSc1nnc(CNC(=O)c2ccc(OC)cc2OC)n1C	-18.4
Cc1oc2c(C)c(O)ccc2c(=O)c1N1C(=O)c2ccccc2C1=O	-3.56
O=[N+]([O-])c1cccc(NC(=S)N2CCOCC2)c1	25
CN(CC(=O)Nc1c(Cl)cccc1Cl)C(=O)c1ccccc1SCC(=O)N1CCCC1	7.08
COC(=O)c1sc(NC(=O)/C=C/c2ccc(C)o2)nc1C	19.9
